Several values for one entry are separate records, joined by “and”; a condition that tells them apart may be missing. Equal values may be shown once.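 Step 1: Grow cells in 96-well plates. Step 2: Expose to compound for 48 hours at 5 concentrations. Step 3: Interpolate endpoints linearly; if unreached, use highest concentration. The concentration for 50% growth inhibition is given as GI50. Definition used: TGI = concentration required for complete inhibition of growth.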
Tested on: NCI-H322M lung
Assay: NCI tumour cell line growth inhibition, 48 h

## C=C(CNCCO)[C@@H]1CC[C@]2(CO)CC[C@]3(C)[C@H](CC[C@@H]4[C@@]5(C)CCC(N)C(C)(C)[C@@H]5CC[C@]43C)[C@@H]12 (stereo partly drawn)
  GI50: 3.3 µM
  TGI: 12.6 µM

## COc1cc(/C=C/c2cc(/C=C/c3ccc(O)c(OC)c3)n(C(=O)Nc3ccc(F)cc3)n2)ccc1O
  GI50: 2.34 µM
  TGI: 14.8 µM

## COc1cc2nc(C)nc(N[C@H](C)c3cc(N)cc(C(F)(F)F)c3)c2cc1O[C@H]1CCOC1
  GI50: 11 µM
  TGI: 23 µM

## Cc1c2n(c(=O)[nH]c1=O)C1OC(CO)C(O2)C1N=[N+]=[N-] (stereo not drawn)
  TGI: > 100 µM

## CC1(C)OC(=O)C(=Cc2ccc(O)cc2)C(=O)O1
  TGI: > 100 µM

## CC(=O)Oc1c(C)c2c(c3ncccc13)OC(C)C2 (stereo not drawn)
  TGI: 33.9 µM

## CC(=O)c1cccc(Nc2nc3ccccc3c3occc23)c1
  TGI: > 100 µM

## Fc1ccc(Nc2ncnc3ccc(-c4cnc5[nH]ccc5c4)cc23)cc1Cl
  GI50: 0.242 µM
  TGI: 5.92 µM

## CC(=O)NC1=C(NCC(C)(C)C)C(=O)c2ccccc2C1=O
  TGI: > 100 µM

## C[n+]1c2ccccc2c(NCC(=O)O)c2ccccc21
  TGI: > 100 µM

## CN(CC(=O)O)S(=O)(=O)c1ccc2ccccc2c1
  TGI: > 100 µM

## O=C(Nc1ccc(F)cc1F)c1cc(I)ccc1O
  GI50: 3.13 µM
  TGI: 60.4 µM

## CC1(C)CCc2ccc(OCCC(=O)O)cc2O1
  TGI: > 100 µM

## O=C(N/C(=C\c1cc(Cl)ccc1Cl)c1nc2[nH]c(=S)[nH]c(=O)c2[nH]1)c1ccccc1
  TGI: > 100 µM

## CC1=CC(=O)[C@@H](O)[C@]2(C)[C@H]3[C@@]4(O)OC[C@]35[C@H]([C@@H](C)[C@H]4O)[C@@H](OC(=O)C(C)(C)CO)C(=O)O[C@@H]5C[C@@H]12
  TGI: 56.2 µM

## N/C(=N\N=C/c1ccc(O)c(O)c1O)NO
  TGI: 42 µM

## COC(=O)[C@@]12C3=NO[C@]1(C(=O)OC)C(O[Si](C)(C)C(C)(C)C)[C@H]1OC(C)(C)O[C@H]1[C@@H]2C(OCc1ccccc1)CC3 (stereo partly drawn)
  TGI: > 100 µM

## O=C(O)CCC(NC(=O)c1ccc(OCc2nc3cc(C(F)(F)F)ccc3nc2-c2ccccc2)cc1)C(=O)O (stereo not drawn)
  TGI: > 100 µM

## C=CCc1cc(OC)c2c(c1)C(O)CC(c1ccc(OC)c(OC)c1)O2 (stereo not drawn)
  TGI: > 100 µM

## Cc1cccc2oc3c(CC(=O)O)cccc3c(=O)c12
  TGI: > 100 µM

## Nn1c(CCCCCCCCc2nnc(COc3ccc(Cl)cc3Cl)n2N)nnc1COc1ccc(Cl)cc1Cl
  TGI: > 100 µM

## S=C(N1CCN(c2ccc(Cl)c(Cl)c2)CC1)N1CCN(c2ccc(Cl)c(Cl)c2)CC1
  TGI: 25.6 µM

## CC(C)c1ccc(C(C)C(=O)N(CC2=C(C(C)c3ccccn3)c3ccccc3C2)C(C)C)cc1 (stereo not drawn)
  GI50: 5.54 µM
  TGI: > 100 µM

## CS(=O)(=O)OCCCCOS(=O)(=O)CF
  TGI: > 100 µM

## COc1ccc(NC(=S)Nc2cc(C)cc(C)n2)cc1
  TGI: > 100 µM

## C[C@@H](CS(C)(=O)=O)Nc1ncc2cc(Oc3ccc(F)cc3F)c(=O)n(C)c2n1
  GI50: > 25 µM
  TGI: > 25 µM

## CN1CCc2cc3c(c4c2C1C(O)c1ccccc1-4)OCO3 (stereo not drawn)
  TGI: > 100 µM

## Cc1cc(=O)[nH]c2cc3oc4ccccc4c3cc12
  TGI: > 100 µM

## COc1cc2c(cc1OC)[C@@H]1[C@H](C#N)C(=O)C(C)(C)N1CC2
  TGI: > 100 µM

## C=C1C[C@@H]2CC[C@@]34CC5O[C@H]6C(O[C@H]7CC[C@H](CC(=O)O[C@@H]8[C@@H](C)[C@@H]9O[C@@H]%10C[C@]%11(C[C@@H]%12O[C@]%13(C[C@H](C)[C@@H]%14O[C@@H]%15CC(C(O)CO)O[C@@H]%15C[C@@H]%14O%13)C[C@H](C)[C@@H]%12O%11)O[C@@H]%10C[C@@H]9O[C@H]8CC8O[C@@H](CC[C@@H]1O2)C[C@@H](C)C8(O)CO)O[C@@H]7[C@@H]6O3)[C@H]5O4 (stereo partly drawn)
  TGI: > 1 µM

## CC1CN1P1(N2CC2C)=NP(N2CC2C)(N2CC2C)=NP(N2CC2C)(N2CC2C)=N1 (stereo not drawn)
  TGI: > 50 µM

## Cn1c(=O)c2c3ccccc3n(C)c2n(C)c1=O
  TGI: > 100 µM

## CN(C)c1ccc(C2CC(c3ccc4ccccc4c3O)=NN2)cc1 (stereo not drawn)
  TGI: > 100 µM

## COc1cc2c(c(OC)c1O)-c1ccc(SC)c(=O)cc1C(NC(C)=O)CC2 (stereo not drawn)
  TGI: > 15.1 µM

## C=Cc1nc2c(Cl)ncnc2n1Cc1ccccc1
  TGI: 23.1 µM

## CC(C)(C)c1cc(C(=O)/C=C/c2c(Cl)cccc2Cl)cc(C(C)(C)C)c1O
  TGI: > 100 µM

## COc1ccc2nc3cc(Cl)ccc3c(Sc3ccccc3[N+](=O)[O-])c2c1
  TGI: > 100 µM

## C=CC[C@H]1O[Si](C(C)(C)C)(C(C)(C)C)[C@H](C)[C@H]1C
  TGI: > 100 µM

## O=[N+]([O-])c1cccc2nc3ccccc3c(NCCCCNc3c4ccccc4nc4cccc([N+](=O)[O-])c34)c12
  TGI: 0.456 µM

## COC(=O)[C@@H](C)C[C@H](Cc1ccc(F)cc1)NC(=O)c1csc([C@@H](C[C@H](C(C)C)N(C)C(=O)[C@@H](NC(=O)[C@H]2CCCCN2C)C(C)C)OC(C)=O)n1
  GI50: 0.00585 µM and 0.00904 µM
  TGI: > 16.7 µM

## NC(=O)C(=CNC(N)=S)C(N)=O
  TGI: > 100 µM

## CN(C)c1ccc(-c2cc(-c3ccc(Nc4nc(Nc5ccc(Cl)cc5)nc(Nc5ccc(Cl)cc5)n4)cc3)no2)cc1
  GI50: 13.9 µM
  TGI: > 100 µM

## COc1cccc2c1C(=O)C1=C(C2=O)C(O)CC(C)(C)O1 (stereo not drawn)
  TGI: > 100 µM

## C1=CC2C=CC(C=C1)P2c1ccccc1 (stereo not drawn)
  TGI: > 100 µM

## O=c1n(CC2CO2)c(=O)n(CC2CO2)n1CC1CO1 (stereo not drawn)
  GI50: 24.8 µM
  TGI: > 96.3 µM

## O=C1NC(N/N=C/c2ccccc2)=N/C1=C\c1ccco1
  TGI: > 100 µM

## O=C(O)CCSC(=O)Nc1cccc(F)c1
  TGI: > 100 µM

## O=C(/C=C/c1ccccc1Cl)c1ccc(Cl)c(Cl)c1
  TGI: > 100 µM

## COc1cccc(NC(=O)CC(=O)n2nc(C)c(N=Nc3ccccc3)c2C)c1
  TGI: > 100 µM

## COc1cc2c(c(OC)c1O)C(=O)C(OC)C(c1ccc(O)c(O)c1)O2 (stereo not drawn)
  GI50: 0.742 µM
  TGI: > 100 µM

## COc1ccccc1CCN1CCN(CCCc2ccccc2)CC1
  TGI: > 100 µM

## Cc1ccc(-c2nnc(-c3ccc4ccccc4c3)o2)cc1
  TGI: > 100 µM

## O=C(O)C(Cc1ccccc1)N1C(=O)N/C(=C\c2ccc(F)cc2)C1=O (stereo not drawn)
  TGI: 74.9 µM

## COc1ccc(/C=C\c2cc(OC)c3c(c2)OCO3)c(O)c1O
  TGI: > 65.2 µM

## Nc1ccccc1-c1noc(=O)[nH]1
  TGI: > 100 µM

## COC(=O)NC(Nc1ccccn1)(C(F)(F)F)C(F)(F)F
  TGI: > 100 µM

## CN(C)CCCNC1=C(Cl)C(=O)c2ccccc2C1=O
  GI50: 6.22 µM
  TGI: 15.5 µM

## NS(=O)(=O)c1ccccc1C(=O)N/N=C(\c1nc2ccc([N+](=O)[O-])cc2[nH]c1=O)C(O)c1ccc([N+](=O)[O-])cc1 (stereo not drawn)
  TGI: > 100 µM

## O=C(O)c1cc(C(=O)O)cc(N2C(=O)c3ccccc3C2=O)c1
  TGI: > 100 µM

## CC(C)=CCCc1c(C)ccc2c1C(=O)C(=O)C(C(C)C)=C2
  TGI: > 22 µM

## CNC(=O)c1ccccc1Nc1nc(Nc2ccc(N3CCOCC3)cc2OC)ncc1Cl
  GI50: 0.703 µM
  TGI: 4.93 µM

## CSC(=N/C=C/c1ccccc1)SC
  TGI: > 100 µM

## CN(CC(=O)N1CC(CCl)c2ccc([N+](=O)[O-])cc21)CC(=O)N1CC(CCl)c2ccc([N+](=O)[O-])cc21 (stereo not drawn)
  TGI: > 100 µM

## O=C1/C(=C/c2ccc([N+](=O)[O-])cc2)COc2ccc(O)c(O)c21
  GI50: 1.49 µM
  TGI: 3.4 µM

## NC1c2c(Br)sc(N3CCCC3)c2C(=O)C1O (stereo not drawn)
  TGI: > 50 µM

## O=C(C1OC1c1ccc(Cl)cc1)C12CC3CC(CC(C3)C1)C2 (stereo not drawn)
  TGI: 47.8 µM

## C/C(=C\CO)CC/C=C(\C)CNc1c(F)c(F)c(F)c(F)c1F
  TGI: 63.2 µM

## CCOC(=O)C1=C(C)CC2C(=O)OC(=O)C2C1(C)C (stereo not drawn)
  TGI: > 100 µM

## CCN(CC)c1ccc2cc(C(N)=O)c(=N)oc2c1
  TGI: > 100 µM

## CCN(CC)CC(C(=O)Nc1c(C)cccc1C)/C(C)=N\NC(=O)C[N+](C)(C)C (stereo not drawn)
  TGI: > 100 µM

## CN(Cc1cnc2nc(N)nc(N)c2n1)c1ccc(C(=O)NCCS(=O)(=O)O)cc1
  TGI: > 100 µM

## CCCN(CCC)CCc1ccc(OC2=CCN(C)CC2)cc1
  TGI: > 100 µM

## CN1Cc2ccccc2S(=O)(=O)n2cccc2C1=O
  TGI: > 100 µM

## C/C(CCn1[nH]c(=O)ccc1=O)=N\O
  TGI: > 100 µM

## CCOC(=O)COc1cccc2c1C(=O)CCO2
  TGI: > 100 µM

## CSCCCN(CCCSC)CCCSC
  TGI: > 100 µM

## CN(C)CCCN1c2ccc([N+](=O)[O-])cc2CCc2cccc([N+](=O)[O-])c21
  TGI: 28 µM

## O=C1C=Cc2c(Br)sc(Br)c21
  TGI: 77.7 µM

## C1=CC2(C=CC13O[C@H](C1CCCCC1)[C@@H](C1CCCCC1)O3)O[C@H](C1CCCCC1)[C@@H](C1CCCCC1)O2
  TGI: > 50 µM

## Cc1ccc(S(=O)(=O)NC(=O)NC(CC(N)=O)C(=O)O)cc1 (stereo not drawn)
  TGI: > 100 µM

## C=CCC1(O)CC(n2cc(C)c(=O)[nH]c2=O)OC1CO[Si](C)(C)C(C)(C)C (stereo not drawn)
  TGI: > 100 µM

## NC(CSC(c1ccccc1)(c1ccccc1)c1ccc2c(c1)OCO2)C(=O)O (stereo not drawn)
  GI50: 0.515 µM
  TGI: > 100 µM

## CCCCCCCCSC1=CC(=O)c2nc3ccccc3c3ccnc1c23
  GI50: > 100 µM
  TGI: > 100 µM

## Nc1ncc(Br)c(NCC2(CO)CCC2)n1
  TGI: > 100 µM

## N#CC(C#N)=c1ccc(=C2NCC3CCCN23)cc1 (stereo not drawn)
  TGI: > 100 µM

## CC(=O)[O][Hg][c]1c(N)c(C)cc(C)c1F
  GI50: 9.13 µM
  TGI: 22.7 µM

## COc1ccc(C2=CSc3cc(Cl)c(C)cc3S(=O)(=O)N2C(C)=O)cc1
  GI50: 19.8 µM
  TGI: 68.1 µM

## O=C1NC2(CCCCC2)C2CCCCC(O)C12 (stereo not drawn)
  TGI: > 100 µM

## Clc1cccc(Cc2cn3cc(-c4ccccc4)nc3s2)c1Cl
  GI50: > 100 µM
  TGI: > 100 µM

## CC(C)=C1C(=O)C[C@]2(C)C[C@H]3O[C@]3(C)CC[C@@H]3O[C@@]3(C)CC[C@@H]12
  TGI: > 50 µM

## Cc1ccc2c(c1)[nH]c(=S)n2C=C(C(N)=O)C(N)=O
  TGI: > 100 µM

## O=C(NCCNc1nccc(-c2c(-c3cccc(O)c3)nc3sccn23)n1)c1ccccc1O
  GI50: 9.4 µM
  TGI: 48.7 µM

## CN(C)CCNc1ccc([N+](=O)[O-])c2sc3ccccc3c(=O)c12
  TGI: 29.6 µM

## O=[N+]([O-])c1cnc(Sc2ccncn2)s1
  GI50: 17.9 µM
  TGI: 34.5 µM

## NC(N)=Nc1ccc(-c2ccc(N=C(N)N)cc2)cc1
  TGI: > 100 µM

## NC1CCC(Nc2nc(NCc3ccc(-c4ccco4)nc3)c3ncn(C4CCCC4)c3n2)CC1 (stereo not drawn)
  GI50: 0.0285 µM

## Cc1sc(Nc2ccc(Nc3nc(-c4ccccc4)c(C)s3)cc2)nc1-c1ccccc1
  TGI: > 100 µM

## COc1c2c(cc3c1C(=O)c1c(O)cccc1C3=O)CC(O)CC2 (stereo not drawn)
  TGI: > 100 µM

## O=C1NC(N/N=C/C(O)C(O)C(O)C(O)CO)=N/C1=C\c1ccco1 (stereo not drawn)
  TGI: > 100 µM

## CCCCCCNC(=O)C(C)C1CCC2(C)C=CC(=O)C(C)=C2C1O (stereo not drawn)
  TGI: > 100 µM

## O=C(Nc1ccc(I)cc1)c1cc([N+](=O)[O-])ccc1O
  GI50: 7.46 µM
  TGI: > 100 µM

Reference: PubChem BioAssay (NCI)
